Article PMC4336329 (PLoS ONE, 2015)
The whole screen tested about 310,000 compounds, of which about 2,200 (0.71%) showed an effect of 50% or more. The effect is printed as a negative number. The list shows a part of the results.

molecular target: human ether-à-go-go-related gene (hERG) potassium channel (human, UniProt Q12809); experiment: primary screen, population patch clamp on CHO cells stably expressing hERG
Sequence (Q12809 whole entry, looked up): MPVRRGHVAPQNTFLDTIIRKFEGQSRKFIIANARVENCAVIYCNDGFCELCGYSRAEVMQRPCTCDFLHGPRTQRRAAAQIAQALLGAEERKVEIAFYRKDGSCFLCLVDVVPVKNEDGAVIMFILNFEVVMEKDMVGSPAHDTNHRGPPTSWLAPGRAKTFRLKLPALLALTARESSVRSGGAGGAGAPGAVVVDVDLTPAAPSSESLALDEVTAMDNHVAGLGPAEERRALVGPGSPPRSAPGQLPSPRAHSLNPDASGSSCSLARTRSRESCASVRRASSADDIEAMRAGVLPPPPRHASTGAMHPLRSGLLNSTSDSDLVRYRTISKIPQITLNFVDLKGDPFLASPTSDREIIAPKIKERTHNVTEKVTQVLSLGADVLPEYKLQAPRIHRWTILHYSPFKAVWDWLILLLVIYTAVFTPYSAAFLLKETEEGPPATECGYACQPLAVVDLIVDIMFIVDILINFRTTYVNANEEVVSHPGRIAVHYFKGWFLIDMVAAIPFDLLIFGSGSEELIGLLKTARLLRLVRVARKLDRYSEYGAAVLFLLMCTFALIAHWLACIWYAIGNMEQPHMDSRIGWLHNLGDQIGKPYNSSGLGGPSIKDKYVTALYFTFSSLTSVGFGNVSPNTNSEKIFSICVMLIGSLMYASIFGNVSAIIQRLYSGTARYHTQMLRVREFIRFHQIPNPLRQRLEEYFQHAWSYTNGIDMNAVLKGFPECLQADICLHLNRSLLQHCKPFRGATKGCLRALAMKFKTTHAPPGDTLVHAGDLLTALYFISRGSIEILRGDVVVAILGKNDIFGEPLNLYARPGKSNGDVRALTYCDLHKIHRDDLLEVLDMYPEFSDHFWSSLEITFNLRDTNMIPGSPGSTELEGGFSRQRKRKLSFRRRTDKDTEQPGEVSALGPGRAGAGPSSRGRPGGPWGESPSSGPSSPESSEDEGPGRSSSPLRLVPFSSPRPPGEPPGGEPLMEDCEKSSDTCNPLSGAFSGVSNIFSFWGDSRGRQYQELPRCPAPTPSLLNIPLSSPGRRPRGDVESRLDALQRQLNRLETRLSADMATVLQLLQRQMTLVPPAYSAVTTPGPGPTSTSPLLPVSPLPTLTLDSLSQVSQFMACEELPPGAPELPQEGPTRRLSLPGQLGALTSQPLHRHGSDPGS

Row | Compound | hERG current change (%, negative = inhibition) at 1uM
1 | CSCCC(NS(=O)(=O)c1ccccc1F)C(=O)NCCCn1nc(C)cc1C (stereo not shown) | -1.95%
2 | C/C(CC(C)C)=N\Nc1ccc(S(N)(=O)=O)cc1[N+](=O)[O-] | 2.68%
3 | COc1nc(SCC(=O)Nc2ccccc2Cl)nc(N(C)C)n1 | 8.71%
4 | COCCNC(=O)/C(C#N)=C/c1c(N2CCN(c3cccc(Cl)c3)CC2)nc2c(C)cccn2c1=O | 11.7%
5 | CCc1ccc(NC(=O)CN2CCc3ccccc3C2)cc1 | -20.3%
6 | COc1ccc(C(=O)CCc2ccc(OC)c(OC)c2)cc1 | 8.32%
7 | O=C(CSc1nnc2ccccn12)c1ccc(Cl)cc1 | 4.39%
8 | N#Cc1cccc(-c2nnc(SCc3ccccc3C#N)o2)c1 | -6.73%
9 | O=C(NC(=O)N1CCN(c2ccc(F)cc2)CC1)c1ccccc1 | 4.42%
10 | Cn1c(CNC(=O)c2ccc(Cl)cc2)nnc1SCC(=O)N1CCOCC1 | 17.2%
11 | O=C(Nc1ccccc1)Nc1ccc(F)cc1F | 13.3%
12 | COc1cc(C(=O)Nc2cc(C)ccn2)ccc1OCC(=O)N1CCOCC1 | 4.29%
13 | Fc1ccc(-n2nnc(-c3ccccc3Cl)n2)cc1 | 16.2%
14 | CN(C)C(=S)Nc1ccc(Cc2ccncc2)cc1 | 13.7%
15 | Cc1sc2ncnc(-n3nnc4ccccc43)c2c1C | 8.8%
16 | COc1ccc(S(=O)(=O)N2CCC(C(N)=O)CC2)cc1 | 14.4%
17 | COc1ccc(CCNC(=O)c2c([S-])n(-c3ccc(C)cc3)c3cccc[n+]23)cc1 | 10.5%
18 | O=C(NC1(C(F)(F)F)Oc2ccccc2O1)N1CCCC1 | 1.78%
19 | CC(C)(C)c1cnnn1-c1ccc(C(=O)CCl)cc1 | 10.9%
20 | COc1ccc(C(=O)NCC(c2ccco2)N(C)C)cc1S(=O)(=O)NCc1ccc(Cl)cc1 (stereo not shown) | -3.71%
21 | Cc1ccc(SCC(=O)Nc2cc(C)on2)cc1 | 10.1%
22 | CCn1ncc(C2=NOC(C(=O)Nc3cccc(C(C)=O)c3)C2)c1C (stereo not shown) | -2.93%
23 | COCc1cc(C2C(C(=O)c3ccco3)=C(O)C(=O)N2CCOCCO)ccc1O (stereo not shown) | -1.36%

Row | Compound | hERG current change (%, negative = inhibition) at 1uM
24 | C=CCn1c(COc2ccc(CC)cc2)nnc1SCC(=O)NC1CCS(=O)(=O)C1 (stereo not shown) | 8.88%
25 | COc1ccc(NC(=S)N(CCO)Cc2cc3c(C)cc(C)cc3[nH]c2=O)cc1 | -4.9%
26 | O=C(CC1OC(=O)c2ccccc21)NCC1COc2ccccc2O1 (stereo not shown) | -12.1%
27 | c1ccc(OCCCc2nc(-c3cccnc3)no2)cc1 | 3.09%
28 | CC(=O)Nc1ccc(NC(=O)c2cc(=O)c3ccc(C)cc3o2)cc1 | 14.9%
29 | O=C(N/N=C/c1ccc([N+](=O)[O-])cc1)c1ccccc1OCc1ccccc1 | 8.09%
30 | COc1ccc(/C=N/OCC(=O)Nc2nc3ccccc3s2)cc1 | 1.7%
31 | CCOc1ccccc1Oc1nc(-c2ccccc2O)nc2ccccc12 | 3.92%
32 | CCN(CC)c1ccc(C(=O)NN)cc1 | 6.35%
33 | Cn1c(CNC(=O)C(Cc2ccccc2)NC(=O)c2cccc(F)c2)cc(=O)n(C)c1=O (stereo not shown) | -0.274%
34 | CC(=O)C1=NOC2C(=O)N(c3ccc(Cl)cc3)C(=O)C12 (stereo not shown) | 9.03%
35 | Cc1cccc(OCc2nnc(SCC(=O)N3CCc4ccccc43)n2C)c1 | 7.27%
36 | Cc1ccc(C)c(N2CCN(C(=O)CN3C(=S)NC(C)(C)CC3C)CC2)c1 (stereo not shown) | 5.55%
37 | Cc1cc(/C=C(/C#N)C(=O)O)c(C)n1-c1cccc2ccccc12 | 10.4%
38 | C=CCN(c1ccccc1C(=O)NCC(=O)O)S(=O)(=O)c1ccccc1C | 18%
39 | CCOC(=O)CSc1nnc(-c2ccncc2)o1 | 13.2%
40 | COC(=O)COn1c(SCC(=O)OC)nc2ccccc2c1=O | -1.93%
41 | Cc1nn(C(C)C(=O)NC2CCC(C)CC2)c(=O)c2nn(-c3ccccc3)c(C)c12 (stereo not shown) | 1.8%
42 | O=C(NCC(=O)N1CCN(c2ccccc2O)CC1)c1ccco1 | 9.05%
43 | COc1ccccc1NC(=O)Cn1nnc(C(=O)NCCc2ccccc2)c1N | 6.86%
44 | O=C(CN1CCOCC1)Nc1ncc(Cc2cccc3ccccc23)s1 | -5.03%
45 | COc1cc(OC)c(OC)cc1/C=C/c1cc(C(=O)O)c2ccccc2n1 | 4.43%
46 | CCOC(=O)N1CCN(c2cc(=O)n(-c3ccccc3Cl)c(=O)[nH]2)CC1 | 13.3%

Row | Compound | hERG current change (%, negative = inhibition) at 1uM
47 | CC12CC(c3ccccc3O1)C(C(=O)OCc1ccccc1)C(=O)N2 (stereo not shown) | 7.32%
48 | COc1ccc([N+](=O)[O-])cc1N(CC(=O)NC(C(C)C)C(C)C)S(C)(=O)=O | 4.06%
49 | CC(=O)Nc1ccc(Nc2c3ccccc3nc3ccccc23)cc1 | -34.6%
50 | CCOC(=O)C1(CC)NC(c2ccco2)C2C(=O)N(c3ccc(C)cc3)C(=O)C21 (stereo not shown) | 6.54%
51 | C/C(=N\NC(=O)c1ccccc1O)c1cccc(NC(=O)c2ccccc2)c1 | 8.4%
52 | CCCNS(=O)(=O)c1ccc(OCC(=O)N2CCN(Cc3ccc4c(c3)OCO4)CC2)cc1 | 6.6%
53 | O=C(C1CCC1)N1CCc2cc(S(=O)(=O)NCCCN3CCCCC3)ccc21 | 17%
54 | Cn1cc(S(=O)(=O)c2ccccc2)c(=O)c2cc(Cl)ccc21 | 81%
55 | O=C1SC(c2ccccc2)=N/C1=C/c1ccco1 | 6.8%
56 | CCC(=NCCc1c(C)[nH]c2ccccc12)C1=C(O)CC(c2ccccc2)CC1=O (stereo not shown) | 2.33%
57 | Cc1nc2nc(CC(=O)O)[nH]n2c(=O)c1[N+](=O)[O-] | 14.1%
58 | O=[N+]([O-])c1cc(C(F)(F)F)ccc1NCCCCNS(=O)(=O)c1ccc2ccccc2c1 | 0.128%
59 | Cc1cc(C)cc(NC(=O)CCN2CCCC2)c1 | 0.603%
60 | CC(=O)NNC(=S)NCCc1ccccc1 | 8.56%
61 | O=C(OCc1ccc(O)cc1)c1c(-c2ccsc2)oc2ccc(N3CCOCC3)cc12 | 7.34%
62 | CN(C)c1nc(N2CCN(c3ccccc3)CC2)c(C#N)c(=O)o1 | -5.61%
63 | COC(=O)Cc1c(C)c2c(O)cc(C)cc2oc1=O | 3.78%
64 | COc1cc(CCCN2C(=O)C(=O)NC[C@@H]2c2ccccc2)cc(OC)c1OC | 5.72%
65 | COc1ccc(OCC(=O)NC2CCCN(Cc3ccc(Cl)cc3)C2)cc1 (stereo not shown) | 9.23%
66 | O=C(NC(CO)c1ccccc1)c1ccco1 (stereo not shown) | 10.3%
67 | c1ccc(CCCc2nc(-c3cccnc3)no2)cc1 | 18.3%
68 | COc1ccc(C)cc1N(CC(=O)Nc1ccc(S(=O)(=O)N2CCOCC2)cc1)S(C)(=O)=O | 8.19%
69 | CCOc1ccc(C(=O)Nc2cccc(C(C)=O)c2)cc1[N+](=O)[O-] | 2.22%

Row | Compound | hERG current change (%, negative = inhibition) at 1uM
70 | Cc1ccc(NC(=O)C2CCC(N3C(=O)C4CCCCC4C3=O)CC2)cc1 (stereo not shown) | 10.6%
71 | Cc1ccccc1-n1c(Cc2cccs2)n[nH]c1=S | 11.9%
72 | CCCCNC(=S)Nc1cc([N+](=O)[O-])ccc1C | 18.9%
73 | COc1ccccc1CNC(=O)COC(=O)c1cc(C)oc1C | 2.86%
74 | COc1ccc(NC2=NC(=S)N(c3ccccc3C)C23CCCCC3)cc1 | 9.78%
75 | CCOC(=O)c1ccc(NC(=O)c2c(N)n(Cc3ccccc3)c(=O)[nH]c2=O)cc1 | 27.2%
76 | O=C(OCCCc1cc2ccccc2c(=O)o1)c1ccc2c(c1)OCO2 | 11.4%
77 | O=C(O)c1nnn(-c2ccc(F)cc2F)c1-c1ccccc1 | 6.78%
78 | O=C1NC(=S)S/C1=C/c1ccc(N2CCOCC2)o1 | 7.39%
79 | O=C(NCC1CCCO1)c1csc2c1CCCC2 (stereo not shown) | 7.52%
80 | CC(=O)Nc1ccc(S(=O)(=O)N(C)Cc2cnn(C)c2)cc1 | 13.7%
81 | O=[N+]([O-])c1nn(-c2ccc3c(c2)OCCO3)n(O)c1=NC1CCCCC1 | -3.73%
82 | Cn1c(CSc2nc3ccccc3s2)nc2ccccc21 | 2.04%
83 | N#CC1=C(N)OC2=C(C(=O)CCC2)C1c1cc2c(cc1Cl)OCO2 (stereo not shown) | 10.4%
84 | CCOC(=O)N1CCC(NC(=O)c2cc3cc4cc(OC)ccc4nc3o2)CC1 | -1.32%
85 | Cc1cc(C)n(-c2nc(-c3ccc(Cl)c(Cl)c3)cs2)n1 | 6.19%
86 | COc1ccc(Nc2ncccc2C(=O)O)cc1 | 3.85%
87 | CCOC(=O)c1ccc(NC(=O)CSc2nc(=O)n(CCN3CCOCC3)c3c2CCC3)cc1 | 7.46%
88 | O=C(c1cc(F)ccc1F)C1CCCN(C(=O)c2ccco2)C1 (stereo not shown) | 5.56%
89 | CCOc1ccc(NC(=O)CSc2nnc(Cc3csc(C)n3)o2)cc1 | 7.31%
90 | Cc1nnc2sc(-c3ccccn3)nn12 | 10.7%
91 | Cc1ccc(-c2nc(SCC(=O)NCC3CCCO3)c(-c3ccc(Cl)cc3)[nH]2)cc1 (stereo not shown) | 8.15%
